Here are results for 48 compounds from PubChem BioAssay AID1508642 (National Center for Advancing Translational Sciences (NCATS), 2021).

Molecules are shown by their SMILES. The whole screen tested about 43,000 compounds, of which about 200 (0.47%) were called active. Inconclusive results (about 12%) are left out. Calls come from the whole dose curve; as a rule, active = well fitted cell-killing curve with a large enough effect; inconclusive = small, poorly fitted or top-dose-only effect, or effect the other way; inactive = flat fitted curve, though single readings scatter. This is one part of the list.
% is set by controls: 0 for no effect and ±100 for the full control effect.

A short description of the assay: Cell viability qHTS assay in S16 Pmp22-F2sN cells. Note: nearly all actives have a fitted effect of over 65% in size. Particulars: S16 Pmp22-F2sN Schwann cells viability, CellTiter-Glo, 24 h; series mostly up to 57.5 µM; activity change, negative = cytotoxicity: at the top concentration. In outline: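 Used to flag compounds lowering reporter output through toxicity, this quantitative HTS measures ATP-based CellTiter-Glo luminescence in S16 Pmp22-F2sN Schwann cells after 24 h compound exposure at 37C.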
Regarding `CCC(Cn1nnc2ccccc2c1=O)NC(=O)Nc1cc(Cl)ccc1OC` (stereo not drawn), the “activity change, negative = cytotoxicity” value is inactive: 23%. With `CCOc1ccc(NC(=O)CCCN2C(=O)C(c3ccccc3)Oc3cccnc32)cc1` (stereo not drawn), the “activity change, negative = cytotoxicity” value was inactive: 9.84%. Turning to `Cc1ccc(Cl)cc1NC(=O)/C(C#N)=C/c1c(C)n(Cc2ccccc2)c2ccccc12`, the “activity change, negative = cytotoxicity” value is inactive: -29.2%. To `CC1CCCCN1C(=O)CSc1nnc(-c2cccc(Cl)c2)o1` (stereo not drawn) belongs inactive: -0.696%; to `Fc1ccc(-c2csc(-c3nc(-c4ccc(Br)s4)cs3)n2)cc1`, inactive: -2.03%; to `Cc1cc(C)c(NC(=O)CSc2nc(=O)n(Cc3ccco3)c3c2CCC3)c(C)c1`, inactive: 4.38%. Regarding `O=C(NCCc1ccc(Cl)cc1)c1ccc2nc(Cc3ccccc3)oc2c1`, the “activity change, negative = cytotoxicity” value is inactive: 13.4%. As for `COc1cccc(-c2nc(SCc3cc(=O)c4cc(Cl)ccc4[nH]3)n[nH]2)c1`, the “activity change, negative = cytotoxicity” value is inactive: -0.81%.

With `CS(=O)(=O)c1ncc(N(Cc2ccccc2)Cc2ccco2)c(C(=O)Nc2cccc(C(F)(F)F)c2)n1`, the “activity change, negative = cytotoxicity” value was inactive: -2.2%.

For `CCOC(=O)c1c(NC(=O)c2cc(-c3ccccc3)on2)sc2c1CCCC2`, the “activity change, negative = cytotoxicity” value is inactive: 4.78%. Turning to `CC(C)Cn1c(=O)c2sccc2n2c(CCCC(=O)Nc3ccc(Cl)cc3)nnc12`, the “activity change, negative = cytotoxicity” value was inactive: 2.08%. `Cc1ccc2c(c1)c(=O)c(S(=O)(=O)c1ccc(F)cc1)cn2CC(=O)Nc1ccc2c(c1)OCO2`: the “activity change, negative = cytotoxicity” value is inactive: -1.15%. Regarding `Cc1ccc(Cl)cc1NC(=O)NC1COc2ccccc2C1` (stereo not drawn), the “activity change, negative = cytotoxicity” value is inactive: 16.9%. For the compound `O=C(Cc1ccc(Cl)cc1)Nc1ccc2oc(-c3ccccc3)nc2c1`, the “activity change, negative = cytotoxicity” value is inactive: 24.8%.

For the compound `CCN(CC)C(=O)c1sc2c(c1C)c(=O)n(-c1ccc(C)c(C)c1)c(=O)n2CC(=O)Nc1ccc(F)cc1`, the “activity change, negative = cytotoxicity” value was inactive: -21.2%. Consider `CC(C)(C)C1CCc2c(sc(NC(=O)c3ccccc3F)c2C(=O)N2CCCCC2)C1` (stereo not drawn), for which the “activity change, negative = cytotoxicity” value was inactive: -0.0512%. For the compound `CCc1ccc(CN(Cc2ccco2)C(=O)c2cc(-c3ccc(Cl)cc3)on2)cc1`, the “activity change, negative = cytotoxicity” value is inactive: 0.36%. The result for `Cc1cc2c(cc1S(=O)(=O)Nc1cccc(C(F)(F)F)c1)OCCN2C` reads inactive: 0.245%; that for `CCOc1ccc(-c2nonc2NC(=O)c2ccccc2C)cc1`, inactive: 3.98%; that for `Cc1cc(C)cc(C(=O)Nc2cc(C(F)(F)F)ccc2N2CCN(c3ccccc3)CC2)c1`, inactive: -10.6%. The result for `Cc1ccccc1NC(=O)Cn1c(=O)n(Cc2ccc3c(c2)OCO3)c(=O)c2oc3ccccc3c21` reads inactive: 8.61%; that for `Cc1ccc(-c2cn3cccc(C)c3n2)cc1NS(=O)(=O)c1ccccc1`, inactive: 0.608%. `COc1ccc(OC)c(CCNC(=O)CCn2c(=O)c3cccn3c3cccnc32)c1`: the “activity change, negative = cytotoxicity” value is inactive: 17.7%. To `CCCCN(c1ccccc1)c1ncnc2c1cnn2-c1ccc(Cl)cc1` belongs inactive: 6.48%; to `Cc1ccc(CN(Cc2ccco2)c2cnc(S(C)(=O)=O)nc2C(=O)Nc2ccc(Br)cc2)o1`, inactive: -12.8%. The result for `Cc1ccc(-c2nn3c(C)nnc3c3ccccc23)cc1S(=O)(=O)NCCO` reads inactive: 12.6%. To `Cc1cccc(N(CC(=O)NC(C)c2ccccc2)S(=O)(=O)c2ccccc2)c1C` (stereo not drawn) belongs inactive: 1.22%; to `CCOc1cc(C(=O)OCc2cc(=O)n3c(C)csc3n2)cc(OCC)c1OCC`, inactive: 10.6%; to `CC(=O)Nc1ccc(S(=O)(=O)NCC2CCC(C(=O)NCCCOC(C)C)CC2)cc1` (stereo not drawn), inactive: 1.18%.

On to `O=C(c1ccccc1)N1CCc2cc(CNS(=O)(=O)c3ccccc3Cl)ccc21`, for which the “activity change, negative = cytotoxicity” value was inactive: -29.2%. The result for `CCOc1ccc(-c2cc3c(=O)n(Cc4nc(-c5cccc(OC)c5OC)oc4C)ccn3n2)cc1Cl` reads inactive: -9.66%. In the case of `Cc1ccc(CNC(=O)c2cn(C)c3ccc(S(=O)(=O)N(C)C4CCCCC4)cc3c2=O)cc1`, the “activity change, negative = cytotoxicity” value is inactive: 0.841%. For the compound `CCc1ccc(-n2nc3ccc(NC(=O)c4cc5ccccc5o4)cc3n2)cc1`, the “activity change, negative = cytotoxicity” value is inactive: -1.64%.

On to `Cc1cc(C)c(Cn2c3ccccc3c3cnn(CC(=O)NCCCc4ccccc4)c(=O)c32)c(C)c1`, for which the “activity change, negative = cytotoxicity” value is inactive: -0.855%. Consider `O=C(NCCc1ccccc1)c1ccc(Cn2c(SCc3ccc(F)cc3)nc3cccnc32)cc1`, for which the “activity change, negative = cytotoxicity” value is inactive: 7.84%. Take `O=C(NCc1cccc(Cl)c1)c1cccn1-c1nnc(N2CCCC2)s1`: the “activity change, negative = cytotoxicity” value was inactive: -3.69%. Take `Cc1ccccc1Nc1c(-c2ccsc2)nc2c(C)cccn12`: the “activity change, negative = cytotoxicity” value is inactive: 5.26%. As to `COc1ccc(OC)c(S(=O)(=O)N2Cc3ccccc3CC2C(=O)Nc2ccc(C(C)=O)cc2)c1` (stereo not drawn), the “activity change, negative = cytotoxicity” value is inactive: -6.47%. In the case of `CCC(=O)N1CCc2cc(S(=O)(=O)CCC(=O)N3CCN(c4cccc(C)c4)C(C)C3)ccc21` (stereo not drawn), the “activity change, negative = cytotoxicity” value is inactive: 7.69%. Take `Cc1ccc(Cl)cc1N1CCN(C(c2ccc(F)cc2)c2nnc(-c3ccccc3)o2)CC1` (stereo not drawn): the “activity change, negative = cytotoxicity” value is inactive: 4.19%. With `O=C(CSc1n[nH]c(-c2ccccc2)n1)N1CCCCC1`, the “activity change, negative = cytotoxicity” value is inactive: 3.55%.

In the case of `COC(=O)c1sccc1S(=O)(=O)N1CCN(c2cccc(C)c2C)CC1`, the “activity change, negative = cytotoxicity” value is inactive: 24.3%. `CCOC(=O)Cn1c(=O)oc2cc(S(=O)(=O)NCc3ccc(F)cc3)ccc21`: the “activity change, negative = cytotoxicity” value was inactive: 3.25%. In the case of `CCOc1ccc(CC(=O)NCCc2csc3nc(-c4ccccc4F)nn23)cc1`, the “activity change, negative = cytotoxicity” value was inactive: -22.7%. For `Cc1noc(/C=C/N(C)C)c1S(=O)(=O)N1CCCC(C(=O)Nc2cccc(F)c2)C1` (stereo not drawn), the “activity change, negative = cytotoxicity” value is inactive: 0.692%. The result for `COc1ccc2nc(NS(=O)(=O)c3ccc(C)cc3)c(Nc3cc(Cl)ccc3OC)nc2c1` reads inactive: -6.05%; that for `O=C(NCC1(c2ccccc2)CCCC1)C(=O)Nc1cccc(C(F)(F)F)c1`, inactive: -11%; that for `CCOc1ccc(CCNC(=O)CSc2cc(=O)n(C)c3ccccc23)cc1OCC`, inactive: -10.2%.
